± gives the standard deviation of the averaged measurements. Some of the results follow.
Each sequence was assayed on PfAP2-G AP2 domain (GST-tagged) (assay: gcPBM binding intensity (ln(normalized median fluorescence intensity)); higher = stronger DNA binding).
Procedure, shortened: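 For binding intensity, the highest Masliner-normalised natural-log median intensity across replicate spots of either probe orientation was taken. Protein bound to the array was stained with Alexa488 anti-GST antibody and scanned at 488 nm. The protein, GST-tagged P. falciparum DNA-binding domains from E. coli at about 25 μg on average, had been applied for 1 h to an Agilent 4 × 180k array of primer-extended double-stranded 36-bp intergenic genomic probes and negative controls.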
In the case of “TCTTTTTTTTTTACTAGTACTTAAAAAAAAAATATG [XGTACX_site4395]”, the “gcPBM binding intensity (ln)” value is reported as 11.2 ± 0.79. In the case of “ATTATGTGCCAATACACACACACATCTATATTTATA [CACACA_site6359]”, the “gcPBM binding intensity (ln)” value is reported as 10.2 ± 0.16. With “TTGAAGTGTACTATTTTATATATATATATACATTTT [CACACA_negctrl_site224]” the “gcPBM binding intensity (ln)” value was 11.6 ± 0.92. “TAGAAATATATTTATTGTACATTGTATATATTATAT [XGTACX_site7584]” was tested, and the “gcPBM binding intensity (ln)” value was 10.6 ± 0.2. For “CATAAATACAAATATACACACATATATATATATATA [CACACA_site2633]”, the “gcPBM binding intensity (ln)” value was 10.2 ± 0.55. In the case of “AATATGTTTTTTAGATGTACAGATTAAATATTAAAA [XGTACX_site7308]”, the “gcPBM binding intensity (ln)” value is reported as 11.2 ± 0.88. In the case of “AAATCACAAAAAAAAAAAAAAATATATATATATATA [CACACA_negctrl_site10]”, the “gcPBM binding intensity (ln)” value is reported as 9.69 ± 0.33. In the case of “TTATTATATAAATAAAAAAAAAAAAAAAAAAAAAAA [CACACA_negctrl_site1455]”, the “gcPBM binding intensity (ln)” value is reported as 9.51 ± 0.35. With “TATATACGCATGCGCACACACAAGTGGGAAATTTGG [CACACA_site1785]” the “gcPBM binding intensity (ln)” value was 10.5 ± 0.19. With “ATATTTATATGAATCACACACAAAAAATATAGAGAT [CACACA_site7775]” the “gcPBM binding intensity (ln)” value was 10.1 ± 0.14. With “ACTGTGGGAATAACCACACACACACCCACATATATA [CACACA_site3542]” the “gcPBM binding intensity (ln)” value was 10.3 ± 0.23. In the case of “TTAATTATATGGTAAACAAATAAATGTGAAAGGAAA [XGTACX_negctrl_site389]”, the “gcPBM binding intensity (ln)” value is reported as 10.02 ± 0.028. With “CGTGGGAGCAGACACACACACACACCCATATATATA [CACACA_site334]” the “gcPBM binding intensity (ln)” value was 10.24 ± 0.078. In the case of “TTTTTTTCATATATATGTACATAATTATATATGCAT [XGTACX_site3257]”, the “gcPBM binding intensity (ln)” value is reported as 11.2 ± 0.75. For “AAATAGTAAGAGATGGTGCGTTTCCTTTTTTTTTTT [GTGCAC_site9663]”, the “gcPBM binding intensity (ln)” value was 9.83 ± 0.21. “TTTAAAAATATTTCACGTACGCATTTTAAAAAGTAT [XGTACX_site8026]” was tested, and the “gcPBM binding intensity (ln)” value was 11.6 ± 1. In the case of “TACAAGAACAAAAAATGTACGAAATAATTACAAATA [XGTACX_site5824]”, the “gcPBM binding intensity (ln)” value is reported as 10.7 ± 0.34. In the case of “AATCTTTTTAAATCTTGATTAATTTCGGGTATATAT [TGCATGCA_negctrl_site107]”, the “gcPBM binding intensity (ln)” value is reported as 9.99 ± 0.29. With “ATACAATAATATAAATGTACAAATTATATCTTCATT [XGTACX_site8994]” the “gcPBM binding intensity (ln)” value was 10.7 ± 0.28. “AAATTAAATATTATATTAATTCTTAAATTTTTTTTT [CACACA_negctrl_site439]” was tested, and the “gcPBM binding intensity (ln)” value was 9.29 ± 0.19. In the case of “AAACATATGGTATTTAAACACACAAAAAAGAAAGAA [CACACA_site8239]”, the “gcPBM binding intensity (ln)” value is reported as 10.1 ± 0.21. For “ATGTTGTGGATATATACACACATACATATTTATATA [CACACA_site6857]”, the “gcPBM binding intensity (ln)” value was 10.2 ± 0.18. “TATATTATATATATATGTACATATTATTATATCTAA [XGTACX_site3835]” was tested, and the “gcPBM binding intensity (ln)” value was 11.2 ± 0.78. In the case of “TTTTGTATTTTTCACACACACATAAGTAAACAATAA [CACACA_site1899]”, the “gcPBM binding intensity (ln)” value is reported as 10.4 ± 0.35.
